{"source": "PubChem BioAssay (Tox21)", "note": "Values joined by “and” are separate entries in the source; they are usually repeats but may differ in a detail not shown here. Identical values can stand only once. The shares of active, inactive and inconclusive entries below differ from those in the screen. A potency beside an inconclusive call is a rough fit, not a confirmed value. Active and inactive are the calls of the source. The call rests on the fitted dose curve; in most records, active means well fitted cell-killing curve with a large enough effect in the repeat runs; inconclusive means weak or mixed curves, or effect the other way; inactive means flat fitted curve, though single readings scatter. *1 amine or outer side, *2 acyl side, *3 side chain or, on linkers, in order; H or OH if unused. Where a SMILES comes first, the peptide text is derived from it. Bridges are numbered along the chain shown (N, C = ends). Roman numbers before positions name the chains, in order. [ ]: non-standard residue; d: D form. Actinocin(9to1) = Cc1c2oc3c(C)ccc(C(=O)[*:1])c3nc-2c(C(=O)[*:2])c(N)c1=O; NMeV = CN[C@H](C(=O)O)C(C)C; Sar = CNCC(=O)O"}
{"test": "qHTS RealTime-Glo MT Cell Viability Assay in HEK293 cells - 8 hour (AID 1224887); further: nearly all actives have a fitted effect of over 50% in size; further: potency means the concentration at half of the fitted maximal effect; tags describe the fitted curve by direction and shape; on activity change, negative = cytotoxicity: top concentration of the series differs between compounds; on the % scale 0 is the no-effect control and ±100 the full control effect", "settings": "RealTime-Glo luminescence; series mostly up to 76.8 µM; activity change, negative = cytotoxicity: at the top concentration", "in_short": "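qHTS format; HEK293 cells with NanoLuc/prosubstrate reagent, 37 C/5% CO2 for 5 h pre-dosing; compounds 23 nL in DMSO; luminescence at each time point reflects viable cells.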"}
{"compound": "Cc1c2oc3c(C)ccc(C(=O)N[C@@H]4C(=O)N[C@H](C(C)C)C(=O)N5CCC[C@H]5C(=O)N(C)CC(=O)N(C)[C@@H](C(C)C)C(=O)O[C@@H]4C)c3nc-2c(C(=O)N[C@@H]2C(=O)N[C@H](C(C)C)C(=O)N3CCC[C@H]3C(=O)N(C)CC(=O)N(C)[C@@H](C(C)C)C(=O)O[C@@H]2C)c(N)c1=O", "note": "(I: T[dV]P[Sar][NMeV] / II: T[dV]P[Sar][NMeV]; ester I:1-I:C, II:1-II:C; linker I:N-II:N via Actinocin(9to1))", "Potency": "inconclusive: 12 µM [cytotoxic, partial curve] and inconclusive: 5.35 µM [cytotoxic, partial curve]"}
{"compound": "CCOC(=O)c1ccc(I)cc1", "Potency": "inconclusive: 31.2 µM [cytotoxic, partial curve]"}
{"compound": "O=C(Nc1cccc(Cl)c1)OCC#CCCl", "Potency": "active: 43.6 µM"}
{"compound": "COc1cc(N)c(Cl)cc1C(=O)NC1CCN(CCCOc2ccc(F)cc2)CC1OC", "note": "(stereo unspecified)", "Potency": "active: 3.01 µM"}
{"compound": "CCOC(=O)c1ccc(C#Cc2ccc3c(c2)C(C)(C)CCS3)nc1", "Potency": "inconclusive: 21.3 µM [cytotoxic, partial curve]"}
{"compound": "CC(C)c1nc(CN(C)C(=O)N[C@H](C(=O)N[C@@H](Cc2ccccc2)C[C@H](O)[C@H](Cc2ccccc2)NC(=O)OCc2cncs2)C(C)C)cs1", "Potency": "inconclusive: 21.3 µM [cytotoxic, partial curve]"}
{"compound": "Oc1c(I)cc(Cl)c2cccnc12", "Potency": "inconclusive: 61.6 µM [cytotoxic, single point]"}
{"compound": "CC(C)(C)C1CCC(CC2=C(O)c3ccccc3C(=O)C2=O)CC1", "note": "(stereo unspecified)", "Potency": "inconclusive: 15.1 µM [rising, partial curve]"}
{"compound": "C[n+]1c2cc(N)ccc2cc2ccc(N)cc21", "note": "(tested in a mixture with another compound)", "Potency": "inconclusive: 21.3 µM [cytotoxic, partial curve]"}
{"compound": "CCCC/C=C/CCCCO", "activity change, negative = cytotoxicity": "inactive: 0.972%"}
{"compound": "CCCCC(CC)C(=O)OCCOCCOCCOC(=O)C(CC)CCCC", "note": "(stereo unspecified)", "Potency": "inconclusive: 34.7 µM [cytotoxic, partial curve]"}
{"compound": "COc1ccccc1N1CCN(CCCCNC(=O)c2ccc(-c3ccc(C(C)=O)cc3)cc2)CC1", "Potency": "inconclusive: 2.39 µM [cytotoxic, full curve]"}
{"compound": "CCN(CC)CCOc1ccc(Cc2ccccc2)cc1", "activity change, negative = cytotoxicity": "inactive: -5.88% [at 35.3 µM]"}
{"compound": "CC(=O)Oc1ccc2c(c1)CC[C@@H]1[C@@H]2CC[C@]2(C)[C@@H](O)CC[C@@H]12", "Potency": "inconclusive: 19 µM [cytotoxic, partial curve]"}
{"compound": "O=C1OC(c2ccc(O)cc2)(c2ccc(O)cc2)c2ccccc21", "Potency": "inconclusive: 61.3 µM [cytotoxic, single point] and inconclusive: 61.6 µM [cytotoxic, single point]"}
{"compound": "CCCCN(CCCC)CCC(O)c1cc2c(Cl)cc(Cl)cc2c2cc(C(F)(F)F)ccc12", "note": "(stereo unspecified)", "activity change, negative = cytotoxicity": "inactive: -8.59% [at 35.3 µM]"}
{"compound": "O=[N+]([O-])c1cc(C2CCCCC2)c(O)c([N+](=O)[O-])c1", "Potency": "inconclusive: 43.5 µM [cytotoxic, partial curve]"}
{"compound": "COCCOc1cc2cc(C(=O)NC3CCN(C(C)C)CC3)n(CC(=O)Nc3ccc(Cl)cn3)c2cn1", "Potency": "inconclusive: 34.3 µM [cytotoxic, partial curve, poor fit]"}
{"compound": "C/C=C/C=C/COC(=O)C(C)C", "Potency": "inconclusive: 61.6 µM [cytotoxic, single point]"}
{"compound": "c1ccc(C(O[C@@H]2CCCN(CCc3ccc4c(c3)OCO4)C2)c2ccccc2)cc1", "Potency": "inconclusive: 61.6 µM [cytotoxic, single point]"}
{"compound": "C[C@@H](O[C@H]1OCCN(Cc2n[nH]c(=O)[nH]2)[C@H]1c1ccc(F)cc1)c1cc(C(F)(F)F)cc(C(F)(F)F)c1", "Potency": "inconclusive: 21.3 µM [cytotoxic, partial curve]"}
